Results on 43 compounds are retold here after paper PMC4336329 (PLoS ONE, 2015).

About 2,200 (0.71%) of roughly 310,000 compounds showed an effect of 50% or more. Effects have a minus sign here. The list shows a part of the results.

Chain of human ether-à-go-go-related gene (hERG) potassium channel (Q12809 whole entry, looked up): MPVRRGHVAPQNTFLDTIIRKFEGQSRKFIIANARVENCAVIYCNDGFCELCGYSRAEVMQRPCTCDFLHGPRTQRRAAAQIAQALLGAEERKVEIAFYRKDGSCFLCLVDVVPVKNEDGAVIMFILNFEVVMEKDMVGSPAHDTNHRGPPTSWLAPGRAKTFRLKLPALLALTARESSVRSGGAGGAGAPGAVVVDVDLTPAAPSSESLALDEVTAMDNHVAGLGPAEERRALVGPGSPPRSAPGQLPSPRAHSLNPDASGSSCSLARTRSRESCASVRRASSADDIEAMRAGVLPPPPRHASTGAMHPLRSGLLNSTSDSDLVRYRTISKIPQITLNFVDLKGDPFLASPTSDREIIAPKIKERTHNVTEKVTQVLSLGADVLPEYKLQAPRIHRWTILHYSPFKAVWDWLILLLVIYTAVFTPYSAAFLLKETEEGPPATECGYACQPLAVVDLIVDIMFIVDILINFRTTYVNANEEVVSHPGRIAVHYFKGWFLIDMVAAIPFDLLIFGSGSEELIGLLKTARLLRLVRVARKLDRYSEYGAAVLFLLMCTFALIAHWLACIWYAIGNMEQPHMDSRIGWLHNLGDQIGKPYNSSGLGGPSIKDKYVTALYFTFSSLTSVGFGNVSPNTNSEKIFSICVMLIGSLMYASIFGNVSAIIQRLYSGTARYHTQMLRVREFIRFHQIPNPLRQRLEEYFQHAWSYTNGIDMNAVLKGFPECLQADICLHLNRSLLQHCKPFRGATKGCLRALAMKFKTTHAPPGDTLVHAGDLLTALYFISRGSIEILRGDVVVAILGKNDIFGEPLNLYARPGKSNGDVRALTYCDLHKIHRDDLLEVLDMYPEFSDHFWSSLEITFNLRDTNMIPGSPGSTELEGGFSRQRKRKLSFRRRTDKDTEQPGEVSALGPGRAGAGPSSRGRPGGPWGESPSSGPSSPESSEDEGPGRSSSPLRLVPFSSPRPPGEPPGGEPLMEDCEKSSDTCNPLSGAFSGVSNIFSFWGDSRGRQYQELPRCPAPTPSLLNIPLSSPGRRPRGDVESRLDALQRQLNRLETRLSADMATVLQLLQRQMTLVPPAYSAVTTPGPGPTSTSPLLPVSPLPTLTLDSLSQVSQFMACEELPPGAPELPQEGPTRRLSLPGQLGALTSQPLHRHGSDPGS

This assay addresses human ether-à-go-go-related gene (hERG) potassium channel (human, UniProt Q12809). In words: primary screen, population patch clamp on CHO cells stably expressing hERG.
As for `CCn1cc(/C=N/NC(=O)c2cc3c(ccc4ccccc43)o2)c2ccccc21`, the “hERG current change (%, negative = inhibition) at 1uM” value is -4.32%. For the compound `COc1ccc(OC)c(C2/C(=C(/O)c3ccccc3)C(=O)C(=O)N2Cc2ccco2)c1` (stereo not shown), the “hERG current change (%, negative = inhibition) at 1uM” value is 13%. Turning to `CCOc1ccc(NS(=O)(=O)c2ccc(NC(C)=O)c(OC)c2)cc1`, the “hERG current change (%, negative = inhibition) at 1uM” value is given as 8.67%. As for `O=C(CSc1nnc2ccc(-c3ccccn3)nn12)Nc1ccccc1`, the “hERG current change (%, negative = inhibition) at 1uM” value is 11%. For the compound `O=C(CCC(=O)Nc1ccccc1)NCCO`, the “hERG current change (%, negative = inhibition) at 1uM” value was 7.93%. The figure for `CC(Sc1cccc[n+]1[O-])C(=O)Nc1cccc([N+](=O)[O-])c1` (stereo not shown) is 12.3%; for `N#Cc1cccc(C(c2nnnn2C2CCCC2)N2CCC(Cc3ccccc3)CC2)c1` (stereo not shown) it is 14.9%.

In the case of `CN1CCc2c(sc(N)c2C(=O)c2ccc(Cl)cc2)C1`, the “hERG current change (%, negative = inhibition) at 1uM” value came out at 13.2%. For the compound `Cc1cc(C)c(S(=O)(=O)N2CCCOC2CNC(=O)C(=O)NCCc2c[nH]c3ccccc23)c(C)c1` (stereo not shown), the “hERG current change (%, negative = inhibition) at 1uM” value is listed as -1.21%. `COc1ccc(N/C=C/C(=O)c2cc(OC)c(OC)c(OC)c2)cc1`: the “hERG current change (%, negative = inhibition) at 1uM” value is 8.33%. In the case of `CCn1c(CCNS(=O)(=O)c2ccccc2Br)nnc1SC`, the “hERG current change (%, negative = inhibition) at 1uM” value was 9.63%. As for `O=C(Nc1ccc(OC(F)F)c(Cl)c1)[C@@H]1CCCN1C(=O)c1cccs1`, the “hERG current change (%, negative = inhibition) at 1uM” value is listed as -20.6%. Regarding `NS(=O)(=O)CCCc1ccccc1`, the “hERG current change (%, negative = inhibition) at 1uM” value is given as 12.2%. For `COc1ccccc1NC(CC(=O)c1ccccc1)C(=O)OCC(=O)c1ccc(Br)cc1` (stereo not shown), the “hERG current change (%, negative = inhibition) at 1uM” value is 0.692%. Next, `Cc1ccc(N2CC(C(=O)Nc3ncc([N+](=O)[O-])s3)CC2=O)cc1` (stereo not shown): 2.03%; `COc1ccc(Cn2c(CCC(=O)Nc3ccccc3)nc3cccnc32)cc1`: -1.86%. As for `CSc1ccccc1OCc1cc(C(=O)N(C)Cc2c(C)n[nH]c2C)no1`, the “hERG current change (%, negative = inhibition) at 1uM” value stood at 8.03%.

`Cc1noc(C)c1CCC(=O)NC1CCCN(Cc2ccc(Cl)cc2)C1` (stereo not shown): the “hERG current change (%, negative = inhibition) at 1uM” value is -8.93%.

Regarding `COc1cc(CNCCSc2nnnn2C)cc(Br)c1OCc1ccc(F)cc1.Cl`, the “hERG current change (%, negative = inhibition) at 1uM” value is reported as -8.18%. On to `COc1ccc(CN2CCNC(=O)C2CC(=O)NCCCn2nnc3ccccc32)cc1C` (stereo not shown), for which the “hERG current change (%, negative = inhibition) at 1uM” value is on record as 7.58%.

Consider `O=S(=O)(Cc1ccccc1)N1CCN(Cc2ccc(Br)cc2)CC1`, for which the “hERG current change (%, negative = inhibition) at 1uM” value is 13.2%. Turning to `O=C(CSc1ccccc1F)NNC(=O)c1ccncc1`, the “hERG current change (%, negative = inhibition) at 1uM” value amounted to 11.9%. For the compound `COc1ccc(C2N(c3ccccn3)C(=O)C3CCCN32)c(OC)c1` (stereo not shown), the “hERG current change (%, negative = inhibition) at 1uM” value was determined as 5.94%.

As for `CC(=O)Nc1cccc(C(=O)OC(C)C(=O)N2CCc3ccccc32)c1` (stereo not shown), the “hERG current change (%, negative = inhibition) at 1uM” value is -13%.

Regarding `COc1ccc(C(=O)NC2CCCCCC2)cc1S(=O)(=O)N1CCCc2ccccc21`, the “hERG current change (%, negative = inhibition) at 1uM” value came to 10.2%. With `CCn1c(SCC(=O)c2cccs2)nnc1-c1cccs1`, the “hERG current change (%, negative = inhibition) at 1uM” value came out at 1.77%.

For the compound `CC(=O)c1cccc(NC(=O)CCNS(=O)(=O)c2cccc3nonc23)c1`, the “hERG current change (%, negative = inhibition) at 1uM” value is given as 16.5%. As to `Cc1c(Cl)cccc1NC(=O)c1ccc(-n2ccnc2)nc1`, the “hERG current change (%, negative = inhibition) at 1uM” value stood at 2.96%. In the case of `Cc1ccsc1-c1nc(CN2C[C@@H](C)O[C@@H](C)C2)c(C)o1`, the “hERG current change (%, negative = inhibition) at 1uM” value is 13.7%. For `COc1cc(C2CC(=O)Oc3c(C(CCN4CCN(c5ccccc5)CC4)c4ccc(N(C)C)cc4)c(OC)cc(OC)c32)cc(OC)c1OC` (stereo not shown), the “hERG current change (%, negative = inhibition) at 1uM” value is recorded as -0.617%. As for `CN(Cc1c(O)ccc2c1oc(=O)c1ccccc12)C1CCCCC1`, the “hERG current change (%, negative = inhibition) at 1uM” value is recorded as 6.64%. Next, `CCOC(=O)C1C(=O)C=C(c2ccc(C)cc2)CC1c1ccco1` (stereo not shown): 11.2%; `Cc1c(C)n(CCc2ccccc2)c2ncnc(NN)c12`: 1.71%. The figure for `CC(=O)c1cc(NC(=O)c2cccc(C(F)(F)F)c2)c(=O)oc1/C=C/N(C)C` is 4.85%. Turning to `COc1cc(C(=O)Nc2ccc(S(=O)(=O)Nc3nccc(C)n3)cc2)cc(OC)c1OC`, the “hERG current change (%, negative = inhibition) at 1uM” value is reported as 11.4%. As for `CN(C)C(Cc1ccccc1)C(=O)c1ccc(-c2ccccc2)cc1.Cl` (stereo not shown), the “hERG current change (%, negative = inhibition) at 1uM” value turned out to be 16.1%. For `Cc1cc(NS(=O)(=O)c2ccc(NC(=O)CCCOc3ccccc3)cc2)no1`, the “hERG current change (%, negative = inhibition) at 1uM” value was 16.4%. `COc1cc(CN2CC(=O)N(c3ccc(C)c(Cl)c3)C2=S)cc(OC)c1OC`: the “hERG current change (%, negative = inhibition) at 1uM” value is reported as 14.8%.

For the compound `COc1ccc(C(=O)Nc2ccc(NC(=O)c3cccc(OC)c3)cn2)cc1`, the “hERG current change (%, negative = inhibition) at 1uM” value was 18.2%. In the case of `CC1=NN(C(=O)c2ccc(Cl)cc2)C(O)(c2ccccc2)C1` (stereo not shown), the “hERG current change (%, negative = inhibition) at 1uM” value is recorded as 21.2%. Regarding `NS(=O)(=O)c1ccc(CCNC(=O)c2nc(CS(=O)(=O)c3ccc(Cl)cc3)no2)cc1`, the “hERG current change (%, negative = inhibition) at 1uM” value is listed as -2.39%.

Regarding `Cc1cc(Cl)c2oc(C(=O)N(CCO)Cc3ccccc3)c(C)c2c1`, the “hERG current change (%, negative = inhibition) at 1uM” value is given as 15.5%. The figure for `Nc1ncnc(Nc2ccccc2C(F)(F)F)n1` is 4.96%.
